The whole screen tested about 310,000 compounds, of which about 14,000 (4.5%) showed an effect of 50% or more. Effects have a minus sign here. The list shows a part of the results.
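Also: peak tail current of the secondary pulse compared with the same well before compound.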

For the test, the target named is human ether-à-go-go-related gene (hERG) potassium channel (human, UniProt Q12809). The experiment in a line: primary screen, population patch clamp on CHO cells stably expressing hERG.
Sequence of human ether-à-go-go-related gene (hERG) potassium channel (Q12809 whole entry, looked up): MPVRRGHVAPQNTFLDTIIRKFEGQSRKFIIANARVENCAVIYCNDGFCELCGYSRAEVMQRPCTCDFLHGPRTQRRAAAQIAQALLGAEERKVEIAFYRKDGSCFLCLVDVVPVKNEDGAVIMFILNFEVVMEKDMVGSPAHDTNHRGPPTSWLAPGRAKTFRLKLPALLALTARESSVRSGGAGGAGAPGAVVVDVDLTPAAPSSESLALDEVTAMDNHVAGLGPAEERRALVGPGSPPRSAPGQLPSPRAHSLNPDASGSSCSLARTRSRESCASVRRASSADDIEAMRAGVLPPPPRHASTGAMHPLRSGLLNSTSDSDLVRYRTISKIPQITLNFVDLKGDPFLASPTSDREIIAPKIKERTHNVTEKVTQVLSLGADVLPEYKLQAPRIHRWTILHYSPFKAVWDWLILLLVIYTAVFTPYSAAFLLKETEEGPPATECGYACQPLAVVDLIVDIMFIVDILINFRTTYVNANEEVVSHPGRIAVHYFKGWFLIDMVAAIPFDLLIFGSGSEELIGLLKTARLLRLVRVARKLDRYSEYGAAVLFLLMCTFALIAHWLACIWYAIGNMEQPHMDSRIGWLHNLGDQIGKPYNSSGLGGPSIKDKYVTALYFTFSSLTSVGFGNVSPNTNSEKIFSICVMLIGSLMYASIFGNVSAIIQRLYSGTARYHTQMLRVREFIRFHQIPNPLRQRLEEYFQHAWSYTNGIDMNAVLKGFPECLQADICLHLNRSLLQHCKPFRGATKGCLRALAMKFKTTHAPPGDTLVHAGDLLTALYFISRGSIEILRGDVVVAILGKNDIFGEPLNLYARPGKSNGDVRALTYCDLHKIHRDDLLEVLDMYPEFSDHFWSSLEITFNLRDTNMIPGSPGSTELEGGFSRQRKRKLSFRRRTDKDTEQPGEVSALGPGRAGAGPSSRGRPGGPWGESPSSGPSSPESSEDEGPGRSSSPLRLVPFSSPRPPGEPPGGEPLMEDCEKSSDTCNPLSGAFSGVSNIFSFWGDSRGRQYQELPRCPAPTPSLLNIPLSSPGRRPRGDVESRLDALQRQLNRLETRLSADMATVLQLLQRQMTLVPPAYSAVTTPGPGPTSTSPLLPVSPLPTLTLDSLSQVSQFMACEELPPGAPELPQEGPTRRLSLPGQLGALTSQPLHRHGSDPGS
Regarding `CCOCc1nnc(NC(=O)C2CCN(C(=O)c3ccco3)CC2)s1`, the “hERG current change (%, negative = inhibition) at 10uM” value is 19.8%. As for `Cc1ccc(C)c(Nc2c([N+](=O)[O-])c(=O)oc3ccccc23)c1`, the “hERG current change (%, negative = inhibition) at 10uM” value is given as -4.01%.

For `CCOc1ccc(-n2nnnc2SCC(=O)Nc2cccc(O)c2)cc1`, the “hERG current change (%, negative = inhibition) at 10uM” value is listed as 0.0292%. Regarding `O=C(COc1ccc(Br)cc1)Nc1ccc2oc(=O)ccc2c1`, the “hERG current change (%, negative = inhibition) at 10uM” value is -7.15%.

As to `OCc1nc2ccccc2n1C/C=C/c1ccccc1`, the “hERG current change (%, negative = inhibition) at 10uM” value was -8.38%. In the case of `Cc1[nH]n(-c2ccccc2)c(=O)c1C=NCc1ccco1` it was -10.7%; in that of `O=C(CSc1nn(-c2ccccc2)c(=S)s1)NC1CCS(=O)(=O)C1` (stereo not shown), 1.41%; in that of `CCS(=O)(=O)c1nc(S(=O)(=O)c2ccc(C)cc2)c(N2CCC(C)CC2)s1`, -3.02%. As to `COc1cccc(C(=O)C2CCCN(Cc3cn[nH]c3C3CCCCC3)C2)c1` (stereo not shown), the “hERG current change (%, negative = inhibition) at 10uM” value is on record as -32.1%.

On to `COc1cccc(CN2CCN(Cc3cc4ccccc4[nH]3)CC2CCO)c1` (stereo not shown), for which the “hERG current change (%, negative = inhibition) at 10uM” value is reported as -59.7%.

As for `O=C(/C=C/c1cccc(F)c1)c1ccc(N2CCOCC2)cc1`, the “hERG current change (%, negative = inhibition) at 10uM” value was -6.24%. In the case of `Cn1c(=O)c(C(=O)NNC(=O)c2ccccc2Br)c(O)c2ccccc21`, the “hERG current change (%, negative = inhibition) at 10uM” value is -1.64%. Take `COc1ccc(C(=O)Nc2c(Cl)cc(Cl)cc2C(=O)NCc2ccco2)cc1`: the “hERG current change (%, negative = inhibition) at 10uM” value was 23.7%. For the molecule `Br.CC(C)CC1CC(C)(c2csc(NNC(=O)c3ccccc3)n2)OC1=O` (stereo not shown), the “hERG current change (%, negative = inhibition) at 10uM” value is -74.5%.

Regarding `CC(=O)c1c(C)[nH]c(C(=O)Nc2cccc(C)c2C)c1C`, the “hERG current change (%, negative = inhibition) at 10uM” value amounted to 16.8%. On to `CCOCCCNC(=O)C1CCN(c2cc(C)nc3c(-c4ccc(OC)c(OC)c4)c(C)nn23)CC1`, for which the “hERG current change (%, negative = inhibition) at 10uM” value is listed as -7.5%. `COc1ccc(CC(=O)NCC(=O)NC(Cc2ccccc2)C(=O)O)cc1` (stereo not shown): the “hERG current change (%, negative = inhibition) at 10uM” value amounted to 26.7%. Consider `COCCN(Cc1cc2cc(C)ccc2[nH]c1=O)S(=O)(=O)c1ccc(Cl)cc1`, for which the “hERG current change (%, negative = inhibition) at 10uM” value is given as 16.4%. As for `CC(C)(C)c1ccccc1NC(=S)NC1CCCCC1`, the “hERG current change (%, negative = inhibition) at 10uM” value is listed as 6.02%. In the case of `O=C(CSc1nc2ccccc2n1CC(=O)N1CCCC1)Nc1ccc2c(c1)OCO2` it was -37.7%. `O=C1CS/C(=N\C(=O)N2c3ccccc3Sc3ccccc32)N1`: the “hERG current change (%, negative = inhibition) at 10uM” value was 5.96%. On to `C=CCOC(=O)c1[nH]c2c(c1C)C(=O)CC(c1ccco1)C2` (stereo not shown), for which the “hERG current change (%, negative = inhibition) at 10uM” value is on record as -1.12%. Take `Cc1ccc(SCCC(=O)NC2CC2)cc1`: the “hERG current change (%, negative = inhibition) at 10uM” value stood at 14.9%. In the case of `COc1cc(/C=N/Nc2nc3ccccc3s2)ccc1OC(=O)c1ccccc1F`, the “hERG current change (%, negative = inhibition) at 10uM” value was found to be 5.94%.

In the case of `CCN1CCN(C(=O)c2cc3c(s2)-c2ccccc2S(=O)(=O)C3)CC1`, the “hERG current change (%, negative = inhibition) at 10uM” value was -11.2%. Regarding `COCCCNC(=O)Cn1cc(/C=C2\C(=O)NC(=O)N(c3ccccc3F)C2=O)c2ccccc21`, the “hERG current change (%, negative = inhibition) at 10uM” value turned out to be 11.6%. Consider `O=C(NCCc1ccccc1)c1cc(=O)c2ccccc2o1`, for which the “hERG current change (%, negative = inhibition) at 10uM” value was -10.3%.

In the case of `O=C(O)CCC(=O)NCC1OCCc2ccccc21` (stereo not shown), the “hERG current change (%, negative = inhibition) at 10uM” value stood at 8.33%.

Take `CCC(=O)Nc1cc(NC(=O)CSc2ncc(-c3ccc(F)cc3)n2Cc2ccco2)ccc1C`: the “hERG current change (%, negative = inhibition) at 10uM” value is recorded as -25.9%. Consider `CSc1ccc(NC(=O)CC(C)=O)cc1`, for which the “hERG current change (%, negative = inhibition) at 10uM” value is -21.3%. On to `O=C(CCN1C(=O)c2ccccc2C1=O)N1CCCCCC1`, for which the “hERG current change (%, negative = inhibition) at 10uM” value amounted to 0.431%.

As to `Cc1ccc(-c2nn(CC(=O)N(C)C)c(=O)c3ccccc23)cc1S(=O)(=O)N(C)C`, the “hERG current change (%, negative = inhibition) at 10uM” value was -10%. With `Cc1onc(-c2ccccc2Cl)c1C(=O)Nc1ccc(OCC(=O)N2CCOCC2)cc1`, the “hERG current change (%, negative = inhibition) at 10uM” value was -3.95%. Consider `COc1cc(NC(=S)N2CCc3ccccc3C2)cc(OC)c1`, for which the “hERG current change (%, negative = inhibition) at 10uM” value is -23.6%.

On to `Cc1ccc(CNC(=O)CC2Nc3c4ccccc4nc(=S)n3C2=O)cc1` (stereo not shown), for which the “hERG current change (%, negative = inhibition) at 10uM” value came out at 59.6%. For `CCOc1ccc(-n2c(=O)c3sccc3n(CC(=O)Nc3cccc(OC)c3)c2=O)cc1`, the “hERG current change (%, negative = inhibition) at 10uM” value is on record as 8.63%.

For the molecule `CCOC(=O)c1c(-c2ccc(OC)cc2)oc2ccc(OC(=O)N(C)C)cc12`, the “hERG current change (%, negative = inhibition) at 10uM” value is 10.1%. Turning to `CC(=O)Oc1ccc(-c2csc(Nc3ccc(Cl)cn3)n2)cc1`, the “hERG current change (%, negative = inhibition) at 10uM” value was determined as 18.4%.

On to `COc1ccc(CN2CCN(S(=O)(=O)c3ccccc3)CC2)c(OC)c1.O=C(O)C(=O)O`, for which the “hERG current change (%, negative = inhibition) at 10uM” value is -63.5%. In the case of `COc1cc2cc3c(N)c(C(=O)Nc4sc(C)c(C)c4C#N)sc3nc2cc1OC` it was -36.7%; in that of `Cc1[nH]c2ccccc2c1C1(O)C(=O)N(Cc2ccc3c(c2)OCO3)c2ccccc21` (stereo not shown), 7.27%.

As for `Cc1ccc(C)c(S(=O)(=O)N(C(=O)c2ccncc2)c2ccc(OC(=O)c3ccncc3)cc2)c1`, the “hERG current change (%, negative = inhibition) at 10uM” value stood at 5.8%. Turning to `Cc1[nH]nc(Nc2ccc(Br)cc2)c1[N+](=O)[O-]`, the “hERG current change (%, negative = inhibition) at 10uM” value was -8.57%.

Source of the values: PMC4336329 (PLoS ONE, 2015).
